Results published in PubChem BioAssay AID540317 (National Center for Advancing Translational Sciences (NCATS), 2011).
Where “and” joins values, the source holds several entries; their conditions need not be identical. Equal entries are not always repeated. Screen size: about 390,000 compounds; about 2,200 (0.56%) were called active. The shares of active, inactive and inconclusive entries below differ from those in the screen. The call rests on the fitted dose curve; in most records, active means well fitted inhibition curve with a large enough effect; inconclusive means small, poorly fitted or top-dose-only effect; inactive means no such curve, though single readings can be large or run the other way. A potency beside an inconclusive call is a rough fit, not a confirmed value.

target: Chromobox protein homolog 1 (Homo sapiens) (UniProt P83916); test: HTS for Inhibitors of HP1-beta Chromodomain Interactions with Methylated Histone Tails; conditions: AlphaScreen HP1-beta / biotin-H3K9me3 peptide binding; series mostly up to 114 µM; further: nearly all actives have a fitted effect of over 70% in size
Sequence of UniProt P83916 (P83916 whole entry, looked up): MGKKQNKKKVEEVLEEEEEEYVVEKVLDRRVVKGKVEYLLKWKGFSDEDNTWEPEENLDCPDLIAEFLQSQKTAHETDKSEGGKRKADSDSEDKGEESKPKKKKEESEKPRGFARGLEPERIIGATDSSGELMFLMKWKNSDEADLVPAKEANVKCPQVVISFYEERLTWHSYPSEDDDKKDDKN
Summary of the method: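 Compound inhibition of the preformed complex between 50 nM HP1-beta and 50 nM biotinylated H3K9me3 peptide was read by AlphaScreen. Buffer was PBS pH 7.4 with 0.01% Tween-20. Incubations ran 30 min at room temperature, with 10 ug/mL donor/acceptor beads.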
Potency means the concentration at half of the fitted maximal effect; tags describe the fitted curve by direction and shape.

| Compound | Potency |
| --- | --- |
| O=C(c1cccs1)N(C(=O)c1cccs1)c1ccc(Br)cn1 | inconclusive: 39.8 µM [inhibitor, single point] |
| COc1ccc(Cn2cnc3c(N)c(C)c(C)cc32)cc1 | inconclusive: 70.8 µM [inhibitor, partial curve] |
| O=[N+]([O-])c1ccc(N2CCOCC2)cc1NCc1ccccc1 | inconclusive: 50.1 µM [inhibitor, partial curve] |
| O=C(Nc1ccc(F)cc1)c1csc2c1CCCCC2 | inactive |
| CN(C)CCN(C(=O)c1ccc2c(c1)CCCC2)c1nc2cc3c(cc2s1)OCCO3 | inconclusive: 39.8 µM [inhibitor, partial curve] |
| CCCn1c(SCC(=O)N2c3ccc(F)cc3CCC2C)nnc1-c1ccccn1 (configuration not stated) | inconclusive: 39.8 µM [inhibitor, single point] |
| Cc1ccc2nc(-c3cccc(-c4nc5ccc(C)cc5o4)n3)oc2c1 | inconclusive: 8.91 µM [inhibitor, partial curve, poor fit] |
| CCOc1ccc(NC(=O)c2cccc3ccccc23)cc1 | inactive |
| Cc1ccc2c(c1)C1CN(C)CCC1N2Sc1ccccc1[N+](=O)[O-] (configuration not stated) | inconclusive: 20 µM [inhibitor, full curve] |
| C/C(CC(=O)NC(C)c1ccccc1)=N\NC(N)=S (configuration not stated) | inconclusive: 79.4 µM [inhibitor, partial curve] |
| CCCCC1SC(N)=NC1=O (configuration not stated) | inconclusive: 6.31 µM [inhibitor, single point] |
| CN(C)c1ccc(N=Nc2ccc(S(=O)(=O)O)cc2)c2ccccc12 | inconclusive: 12.6 µM [inhibitor, full curve] |
| Oc1ccc(CNc2ccccc2F)c2cccnc12 | active: 1.41 µM |
| COc1ccc(N2CCN(c3oc(COc4ccccc4Cl)nc3C#N)CC2)cc1 | inconclusive: 10 µM [inhibitor, partial curve, poor fit] |
| O=[N+]([O-])c1ccc(N2CCCCC2)s1 | inconclusive: 15.8 µM [inhibitor, full curve] |
| CC(=O)Oc1cc2cccc(OC(C)=O)c(=O)c2c(OC(C)=O)c1OC(C)=O | inconclusive: 20 µM [inhibitor, full curve, poor fit] |
| COc1ccccc1N1CCN(CC(=O)Nc2ccc(CN3CCCCC3)cc2)CC1 | inconclusive: 50.1 µM [inhibitor, partial curve] |
| CCOC(=O)Cc1csc(N/C(=N/S(=O)(=O)c2ccc(Cl)cc2)c2ccccc2)n1 | inconclusive: 22.4 µM [inhibitor, single point] |
| NC(CO)C(=O)NNCc1ccc(O)c(O)c1O (configuration not stated) | inconclusive: 15.8 µM [inhibitor, partial curve, poor fit] |
| CC1OC(CC(=O)O)CC2=C1C(=O)c1c(O)cccc1C2=O (configuration not stated) | inconclusive: 79.4 µM [inhibitor, single point] |
| COc1cccc(CNC(=O)Cc2c(C(=O)O)c(C)cn2C)c1 | inactive |
| CCOC(=O)c1c(NC(=O)c2cc(-c3cccc(OC)c3)on2)sc2c1CCCC2 | inconclusive: 15.8 µM [inhibitor, full curve] |
| O=C(NCc1cccs1)c1ccc(CSc2nc3cccnc3n2Cc2ccccc2F)cc1 | inconclusive: 20 µM [inhibitor, full curve] |

| Compound | Potency |
| --- | --- |
| O=[N+]([O-])c1cc(S(=O)(=O)C(F)(F)F)ccc1N1CCN(c2ccccc2)CC1 | inconclusive: 39.8 µM [inhibitor, partial curve] |
| CCNC(=O)COC(=O)c1cc(-c2ccco2)nc2ccccc12 | inconclusive: 39.8 µM [inhibitor, partial curve] |
| O=C(COc1ccccc1[N+](=O)[O-])N(Cc1cccc(Br)c1)C1CCS(=O)(=O)C1 (configuration not stated) | inactive |
| Clc1ccc(Cn2c(/C=C/c3ccco3)nc3ccccc32)cc1 | inconclusive: 44.7 µM [inhibitor, partial curve] |
| CC(=O)N1Cc2ccccc2CC1C(=O)O (configuration not stated) | inconclusive: 7.08 µM [inhibitor, single point] |
| O=C(Nc1ccc(C(F)(F)F)cc1)c1cc(-c2cccnc2)nc2ccc(Br)cc12 | inactive |
| COc1cc(/C=C2\SC(=S)N(NS(=O)(=O)c3ccc(C)cc3)C2=O)ccc1O | inconclusive: 22.4 µM [inhibitor, full curve] |
| Cc1ccc(S(=O)(=O)N2CCOCC2)cc1C(=O)NNC(=O)c1ccoc1C | inactive |
| CCOC(=O)C1CCCN(C2=C(NS(=O)(=O)c3ccc(Br)cc3)C(=O)c3ccccc3C2=O)C1 (configuration not stated) | active: 10 µM |
| O=C(/C=C/c1ccccc1[N+](=O)[O-])c1ccccc1Br | inconclusive: 39.8 µM [inhibitor, partial curve] |
| O=CN/C=C/c1cc(O)ccc1O | inconclusive: 3.98 µM [inhibitor, full curve, poor fit] |
| CC(=O)N1CCN(c2ccc(NCc3ccc(C(C)C)cc3)cc2)CC1 | inconclusive: 56.2 µM [inhibitor, partial curve] |
| COc1ccc(N=C2C(=S)N(c3ccc(OC)cc3)C(=NS(=O)(=O)c3ccccc3)N2c2ccccc2)cc1 | active: 10 µM |
| CCOC(=O)c1cc(CC)sc1NC(=O)CCC(=O)O | inactive |
| Cc1nc(NC(=O)CCc2ccccc2)sc1C | inconclusive: 44.7 µM [inhibitor, partial curve] |
| CCCCN(C)CCNC(=O)CCn1nc(-c2ccc(Cl)cc2)ccc1=O | inactive |
| COc1ccc(CN=Cc2c(O)[nH]c3ccccc23)cc1 | inconclusive: 31.6 µM [inhibitor, full curve] |
| CC(C)(C)c1cc[n+](/C(C(=S)Nc2ccccc2F)=C(/[O-])c2ccc3c(c2)OCCO3)cc1 | inactive |
| CCC(=O)N1CCc2cc(S(=O)(=O)CCC(=O)O)ccc21 | inconclusive: 89.1 µM [inhibitor, single point] |
| Cc1[nH][nH]c(=O)c1C(c1c(C)[nH][nH]c1=O)c1cn(Cc2ccc(F)cc2)c2ccccc12 | inconclusive: 44.7 µM [inhibitor, partial curve] |
| CCN=c1scc(C)n1/N=C/c1ccsc1 | inconclusive: 44.7 µM [inhibitor, partial curve] |
| Cc1ccc(S(=O)(=O)Nc2c(C(=O)O)[nH]c3ccccc23)c(C)c1 | inconclusive: 44.7 µM [inhibitor, partial curve] |
| CC(C)(C=O)C1=CC(=O)c2ccccc2C1=O | active: 5.01 µM |

| Compound | Potency |
| --- | --- |
| COC(=O)Cc1ccc(O)c(N)c1 | inconclusive: 25.1 µM [inhibitor, full curve] |
| Cc1sc2ncnc(NCC(c3ccco3)N(C)C)c2c1C (configuration not stated) | inconclusive: 17.8 µM [inhibitor, partial curve, poor fit] |
| Fc1ccc([C@@H]2CCNC[C@H]2COc2ccc3c(c2)OCO3)cc1 | inconclusive: 20 µM [inhibitor, full curve, poor fit] and inconclusive: 17.8 µM [inhibitor, full curve] and inconclusive: 39.8 µM [inhibitor, partial curve] |
| CCC(C)(C)C1CCC(=NNC(=S)Nc2ccccc2)CC1 (configuration not stated) | inconclusive: 50.1 µM [inhibitor, partial curve] |
| CN(c1ccccc1C(=O)Nc1ccc2c(c1)n(C)c(=O)n2C)S(C)(=O)=O | inactive |
| CCN(CC)S(=O)(=O)c1cccc(C(=O)OC2CCOC2=O)c1 (configuration not stated) | inconclusive: 89.1 µM [inhibitor, partial curve, poor fit] |
| CCOC(=O)c1ccc(NC(=O)CC2Sc3ncnn3C2=O)cc1 (configuration not stated) | inconclusive: 89.1 µM [inhibitor, single point] |
| C=CCOc1ccc(CN(C)c2ccc(S(=O)(=O)N3CCN(C)CC3)cc2[N+](=O)[O-])cc1 | inconclusive: 14.1 µM [inhibitor, full curve] |
| O=C(CSc1nccn1-c1ccc(F)cc1)Nc1ccc2c(c1)OCO2 | inconclusive: 20 µM [inhibitor, full curve, poor fit] |
| Cc1ccc(C(=O)Nc2ccc(-c3cn4cccnc4n3)cc2)cc1C | inactive |
| COc1ccc(NC(=O)c2ccc(-c3ccccc3)cc2)cc1NS(=O)(=O)c1ccc(F)cc1 | inactive |
| Cc1cccc(/C=C2\CS/C(=C\c3cccc(C)c3)C2=O)c1 | inconclusive: 7.94 µM [inhibitor, partial curve, poor fit] |
| CCOC(=O)C1(CCc2ccccc2)CCN(C(=O)Cc2nonc2C)CC1 | inactive |
| Cc1ccc(-c2[nH][nH]c(=O)c(=O)c2N=Nc2ccccc2)cc1 | inconclusive: 28.2 µM [inhibitor, full curve] |
| CCOC(=O)C1=C(C)NC2=C(C(=O)c3ccccc32)C1c1cccc2ccccc12 (configuration not stated) | inconclusive: 20 µM [inhibitor, full curve] |
| O=C(N[C@H]1CCC(=O)N(CCSc2ccc(Br)cc2)CC1)OCc1ccccc1 | inactive |
| Cc1ccc(-c2cc(N)n(-c3ccc(F)cc3)n2)cc1 | inconclusive: 70.8 µM [inhibitor, partial curve] |
| CCC(=O)NC1=C(Nc2ccc(N)cc2)C(=O)c2ccccc2C1=O | inconclusive: 70.8 µM [inhibitor, partial curve] |
| CCOc1ccc(CCNC(=O)C2CC(C)=CCC2C(=O)O)cc1OCC (configuration not stated) | inconclusive: 50.1 µM [inhibitor, partial curve] |
| CCN1CCN(c2cc(C)c3cc(NC(=S)N4CCCCC4)ccc3n2)CC1 | inactive |
| O=C(CN1C2=NCCCN2c2ccccc21)c1cccc(Br)c1 | inconclusive: 39.8 µM [inhibitor, single point] |
